Assay [1] addresses T1, GST tagged KDELR C tail (human) (UniProt P24390).
T1 sequence: GKKLSLPA
In words: pull-down; 100 ug GST fusion protein on glutathione Sepharose 4B incubated with cell lysate (A431 by results and legend) at 4 °C for 1 h, immunoblot; only the target purified.

Protein sequences, listed by entry. Tags and fused reporters are not part of them. Lines headed by an entry give the natural chain unless they say otherwise; changes in a name come on top. Residues count along the entry.
UniProt Q8N6T3: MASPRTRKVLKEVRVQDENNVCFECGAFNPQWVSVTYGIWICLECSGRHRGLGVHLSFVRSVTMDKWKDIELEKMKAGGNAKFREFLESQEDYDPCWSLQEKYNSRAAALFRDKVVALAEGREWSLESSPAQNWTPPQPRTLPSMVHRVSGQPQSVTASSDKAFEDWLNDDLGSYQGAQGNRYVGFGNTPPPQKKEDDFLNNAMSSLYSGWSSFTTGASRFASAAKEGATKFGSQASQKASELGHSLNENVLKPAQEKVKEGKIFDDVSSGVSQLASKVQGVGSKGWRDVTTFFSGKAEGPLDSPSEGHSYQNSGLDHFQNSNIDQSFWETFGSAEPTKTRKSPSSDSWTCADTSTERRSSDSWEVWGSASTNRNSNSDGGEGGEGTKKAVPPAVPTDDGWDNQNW
UniProt P09471: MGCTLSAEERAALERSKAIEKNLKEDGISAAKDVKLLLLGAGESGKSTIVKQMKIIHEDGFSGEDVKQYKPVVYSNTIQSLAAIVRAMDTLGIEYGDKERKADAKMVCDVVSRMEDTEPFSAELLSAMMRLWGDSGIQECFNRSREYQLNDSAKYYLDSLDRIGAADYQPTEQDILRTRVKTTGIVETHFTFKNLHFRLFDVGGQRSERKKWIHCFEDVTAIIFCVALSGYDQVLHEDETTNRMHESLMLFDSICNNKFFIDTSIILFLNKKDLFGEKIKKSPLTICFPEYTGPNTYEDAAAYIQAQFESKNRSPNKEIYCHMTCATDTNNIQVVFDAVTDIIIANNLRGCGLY
UniProt P50148: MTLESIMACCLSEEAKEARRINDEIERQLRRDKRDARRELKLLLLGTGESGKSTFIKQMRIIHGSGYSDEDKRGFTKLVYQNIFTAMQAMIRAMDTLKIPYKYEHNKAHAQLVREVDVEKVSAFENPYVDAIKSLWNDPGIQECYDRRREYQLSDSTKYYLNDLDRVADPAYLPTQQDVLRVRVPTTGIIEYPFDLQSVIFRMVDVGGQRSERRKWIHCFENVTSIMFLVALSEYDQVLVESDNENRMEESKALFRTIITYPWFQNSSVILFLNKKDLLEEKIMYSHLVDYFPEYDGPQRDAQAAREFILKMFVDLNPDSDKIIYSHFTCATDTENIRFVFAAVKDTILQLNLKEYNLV
UniProt Q9H3P7: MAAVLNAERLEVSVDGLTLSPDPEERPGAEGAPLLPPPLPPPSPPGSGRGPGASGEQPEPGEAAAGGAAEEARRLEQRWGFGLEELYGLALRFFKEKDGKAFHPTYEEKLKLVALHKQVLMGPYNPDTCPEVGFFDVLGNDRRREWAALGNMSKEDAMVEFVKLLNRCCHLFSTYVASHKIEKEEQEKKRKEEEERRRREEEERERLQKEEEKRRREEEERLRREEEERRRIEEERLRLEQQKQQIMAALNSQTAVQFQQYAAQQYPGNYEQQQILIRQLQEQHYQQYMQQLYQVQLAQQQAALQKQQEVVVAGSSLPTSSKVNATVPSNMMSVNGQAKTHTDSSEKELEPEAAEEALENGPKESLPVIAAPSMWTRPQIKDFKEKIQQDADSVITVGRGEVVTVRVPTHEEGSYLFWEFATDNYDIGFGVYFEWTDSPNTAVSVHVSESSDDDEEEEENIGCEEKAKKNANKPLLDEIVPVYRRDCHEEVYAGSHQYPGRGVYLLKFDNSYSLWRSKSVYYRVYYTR
UniProt P17301, residues 30-1181: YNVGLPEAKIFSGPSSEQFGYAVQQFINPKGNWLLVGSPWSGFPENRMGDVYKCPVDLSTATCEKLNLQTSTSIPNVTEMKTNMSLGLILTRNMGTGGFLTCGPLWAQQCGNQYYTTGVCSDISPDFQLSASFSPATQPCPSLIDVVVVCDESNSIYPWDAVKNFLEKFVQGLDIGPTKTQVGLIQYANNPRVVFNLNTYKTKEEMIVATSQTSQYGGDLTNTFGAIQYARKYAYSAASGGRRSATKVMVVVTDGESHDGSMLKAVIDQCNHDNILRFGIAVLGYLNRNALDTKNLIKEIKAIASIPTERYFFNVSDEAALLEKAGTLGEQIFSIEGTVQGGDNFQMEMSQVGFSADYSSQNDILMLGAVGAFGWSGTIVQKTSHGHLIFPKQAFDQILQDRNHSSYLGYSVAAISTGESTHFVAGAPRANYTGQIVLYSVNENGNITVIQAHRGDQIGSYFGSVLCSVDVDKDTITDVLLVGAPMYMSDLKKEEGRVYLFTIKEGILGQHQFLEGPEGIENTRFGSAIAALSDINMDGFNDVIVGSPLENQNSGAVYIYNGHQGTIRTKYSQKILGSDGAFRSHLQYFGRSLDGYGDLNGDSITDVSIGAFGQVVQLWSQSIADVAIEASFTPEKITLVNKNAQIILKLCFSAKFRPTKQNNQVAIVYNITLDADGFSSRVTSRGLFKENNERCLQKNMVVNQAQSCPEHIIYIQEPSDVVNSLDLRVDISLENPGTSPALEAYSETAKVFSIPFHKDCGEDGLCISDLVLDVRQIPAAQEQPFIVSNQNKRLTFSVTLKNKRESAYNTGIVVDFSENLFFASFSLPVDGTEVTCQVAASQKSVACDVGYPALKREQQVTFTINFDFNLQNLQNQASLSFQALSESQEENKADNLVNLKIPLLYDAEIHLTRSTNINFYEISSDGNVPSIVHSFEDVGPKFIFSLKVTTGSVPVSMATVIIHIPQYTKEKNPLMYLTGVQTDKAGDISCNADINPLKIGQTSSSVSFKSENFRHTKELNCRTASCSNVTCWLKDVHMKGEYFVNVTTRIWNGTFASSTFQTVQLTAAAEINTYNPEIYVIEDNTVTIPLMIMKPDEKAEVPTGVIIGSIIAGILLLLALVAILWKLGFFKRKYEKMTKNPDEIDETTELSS
UniProt P63092: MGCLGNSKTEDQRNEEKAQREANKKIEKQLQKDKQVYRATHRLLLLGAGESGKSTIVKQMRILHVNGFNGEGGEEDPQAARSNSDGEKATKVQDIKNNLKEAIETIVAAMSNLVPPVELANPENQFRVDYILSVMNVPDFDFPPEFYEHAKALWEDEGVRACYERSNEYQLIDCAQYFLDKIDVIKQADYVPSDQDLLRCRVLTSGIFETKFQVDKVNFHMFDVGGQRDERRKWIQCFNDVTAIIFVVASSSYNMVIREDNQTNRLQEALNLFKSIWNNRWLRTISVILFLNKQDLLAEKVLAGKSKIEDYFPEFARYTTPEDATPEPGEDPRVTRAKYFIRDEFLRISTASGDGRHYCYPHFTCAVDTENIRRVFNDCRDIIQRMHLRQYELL

The target in assay [2] is T2, Halo-KDELR-Flag-VN (human) (UniProt P24390).
T2 sequence: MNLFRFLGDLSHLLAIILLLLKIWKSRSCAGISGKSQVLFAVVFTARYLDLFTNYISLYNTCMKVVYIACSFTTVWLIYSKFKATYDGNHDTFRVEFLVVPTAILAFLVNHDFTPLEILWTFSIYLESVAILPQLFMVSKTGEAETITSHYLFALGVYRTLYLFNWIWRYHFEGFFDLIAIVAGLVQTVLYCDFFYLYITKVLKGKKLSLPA
As to the kind of experiment: split reporter; split Venus: HeLa cells co-transfected with Halo-KDELR-flag-VN and Gα-myc-VC or Gα-GDP-myc-VC for 18 h, confocal microscopy.

Assay [3] concerns the target T3, KDELR-mCherry (human) (UniProt P24390).
T3 sequence: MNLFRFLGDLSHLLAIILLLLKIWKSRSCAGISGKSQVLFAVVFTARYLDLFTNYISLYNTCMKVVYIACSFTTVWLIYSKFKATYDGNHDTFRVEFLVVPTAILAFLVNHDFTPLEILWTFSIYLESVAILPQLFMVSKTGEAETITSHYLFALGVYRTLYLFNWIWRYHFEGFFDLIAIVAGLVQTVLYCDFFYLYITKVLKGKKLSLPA
In words: co-IP; anti-RFP agarose beads, HeLa lysates (20 mM HEPES pH 7.4, 100 mM NaCl, 2 mM DDM, 0.02% CHS), 4 h at 4 °C, western blot of endogenous partners.

The target of assay [4] is T4, endogenously Flag-mCherry tagged KDELR (human (endogenous in HeLa)) (UniProt P24390).
T4 sequence: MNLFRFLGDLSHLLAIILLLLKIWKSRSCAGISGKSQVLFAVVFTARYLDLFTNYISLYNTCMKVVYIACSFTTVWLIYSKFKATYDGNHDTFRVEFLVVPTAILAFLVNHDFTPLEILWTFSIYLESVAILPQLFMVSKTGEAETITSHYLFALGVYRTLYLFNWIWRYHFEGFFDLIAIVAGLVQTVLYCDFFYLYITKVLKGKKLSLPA
The assay is described as above.

Assay [5] addresses T5, KDELR-Cub (human) (UniProt P24390).
T5 sequence: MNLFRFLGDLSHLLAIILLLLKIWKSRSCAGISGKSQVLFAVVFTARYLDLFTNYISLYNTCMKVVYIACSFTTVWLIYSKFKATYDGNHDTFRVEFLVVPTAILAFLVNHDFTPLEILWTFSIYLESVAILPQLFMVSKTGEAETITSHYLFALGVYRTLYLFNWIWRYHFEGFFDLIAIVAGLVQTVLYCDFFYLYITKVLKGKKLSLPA
In words: two-hybrid; split-ubiquitin membrane yeast two-hybrid (MYTH), NMY51 yeast; KDELR-Cub-LexA-VP16 bait, NubG preys; growth on SD/-Ade/-Leu/-Trp/-His with X-α-Gal.

Assay [6] concerns the target T6, Halo-KDELR-V5-VN (human) (UniProt P24390).
T6 sequence: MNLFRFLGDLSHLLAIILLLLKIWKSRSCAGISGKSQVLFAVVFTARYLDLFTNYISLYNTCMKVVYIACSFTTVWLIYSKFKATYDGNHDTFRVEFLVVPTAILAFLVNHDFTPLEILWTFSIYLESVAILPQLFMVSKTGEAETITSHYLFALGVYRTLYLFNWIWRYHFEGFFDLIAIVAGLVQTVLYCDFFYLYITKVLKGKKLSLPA
As to the kind of experiment: split reporter; split Venus of two differently tagged copies in HeLa cells (EGFR-myc-VC/EGFR-Flag-VN; Halo-KDELR-V5-VN/Halo-KDELR-myc-VC), 50 μM TAEKDEL peptide, 30 nM EGF or DMSO, 0 or 30 min at 37 °C, confocal microscopy.

In assay [7] the target is T5, KDELR-Cub (human). As to the kind of experiment: two-hybrid; split-ubiquitin membrane yeast two-hybrid (MYTH), NMY51 yeast; KDELR-Cub-LexA-VP16 bait, NubG preys; growth on SD/-Ade/-Leu/-Trp/-His with X-α-Gal. This is another data set of the same source.

Where two headings read alike, the source gives them in different places. These are yes or no findings as the source states them, for the method shown. For some of these results: Binding seen in cells or lysates may run through a third protein. Some entries that bind do so weakly or less than the wild type. For some of these results: Sequences can lack the tags named with a protein.

In the case of “ArfGAP1 (endogenous, A431) (from UniProt Q8N6T3 1-406)”, the binding result in assay [1] is “binds”.

In the case of Gαo-myc-VC (from UniProt P09471 1-354), the binding result in assay [2] is “no binding”.

Turning to Gαq-myc-VC (from UniProt P50148 1-359), in assay [2], the binding result is “no binding”.

As to “Gαq-S53C-myc-VC (from UniProt P50148 1-359)”, the binding entry in assay [2] was “no binding”.

As for “ArfGAP1 (endogenous, HeLa) (from UniProt Q8N6T3 1-406)”, the binding entry in assay [3] and in assay [4] was “binds” in each case.

For the molecule “Gαo-S47C-myc-VC (from UniProt P09471 1-354)”, the binding entry in assay [2] is given as “no binding”.

In the case of NubG-ACBD3 (from UniProt Q9H3P7 1-528), the binding entry in assay [5] is given as “binds”.

As for “integrin α2 (endogenous, HeLa) (from UniProt P17301 30-1181)”, the binding result in assay [3] and in assay [4] was “no binding” in each case.

On to “Gαs-S54C-myc-VC (from UniProt P63092 1-394)”, for which the binding entry in assay [2] was “no binding”.

B1: Halo-KDELR-V5-VN (receptor, UniProt P24390 1-212)
chain: MNLFRFLGDLSHLLAIILLLLKIWKSRSCAGISGKSQVLFAVVFTARYLDLFTNYISLYNTCMKVVYIACSFTTVWLIYSKFKATYDGNHDTFRVEFLVVPTAILAFLVNHDFTPLEILWTFSIYLESVAILPQLFMVSKTGEAETITSHYLFALGVYRTLYLFNWIWRYHFEGFFDLIAIVAGLVQTVLYCDFFYLYITKVLKGKKLSLPA
Turning to B1, the binding entry in assay [6] was “binds”.

B2: NubG-GLUT4 (protein, UniProt P14672 1-509)
chain: MPSGFQQIGSEDGEPPQQRVTGTLVLAVFSAVLGSLQFGYNIGVINAPQKVIEQSYNETWLGRQGPEGPSSIPPGTLTTLWALSVAIFSVGGMISSFLIGIISQWLGRKRAMLVNNVLAVLGGSLMGLANAAASYEMLILGRFLIGAYSGLTSGLVPMYVGEIAPTHLRGALGTLNQLAIVIGILIAQVLGLESLLGTASLWPLLLGLTVLPALLQLVLLPFCPESPRYLYIIQNLEGPARKSLKRLTGWADVSGVLAELKDEKRKLERERPLSLLQLLGSRTHRQPLIIAVVLQLSQQLSGINAVFYYSTSIFETAGVGQPAYATIGAGVVNTVFTLVSVLLVERAGRRTLHLLGLAGMCGCAILMTVALLLLERVPAMSYVSIVAIFGFVAFFEIGPGPIPWFIVAELFSQGPRPAAMAVAGFSNWTSNFIIGMGFQYVAEAMGPYVFLLFAVLLLGFFIFTFLRVPETRGRTFDQISAAFHRTPSLLEQEVKPSTELEYLGPDEND
On to B2, for which, in assay [7], the binding result is listed as “no binding”.

The values above are taken from paper PMC10880305.
